In the supplement of paper PMC10369915:
This is one part of the list. No stated cut-off is given here; in the data, active = 3.2 or more and inactive = the rest. The signal is at background level for most entries.

Key:
Assay in all cases: enrichment score (SH2-bound / input frequency) (ratio); bacterial display of known human phosphotyrosine sites (pTyr-Var adds point mutants) read by sequencing; higher = stronger binding; tyrosines were phosphorylated by kinases first
Settings in all cases: peptide library: Human pTyr
SHP2 C-SH2 domain E139D = target: SHP2 C-SH2 domain E139D
[1] = target: SHP2 C-SH2 domain wild-type
SHP2 N-SH2 domain L43F = target: SHP2 N-SH2 domain L43F
SHP2 N-SH2 domain T42A = target: SHP2 N-SH2 domain T42A
SHP2 N-SH2 domain T52S = target: SHP2 N-SH2 domain T52S
[2] = target: SHP2 N-SH2 domain wild-type

Measured: enrichment score
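Further: displayed peptides selected on beads carrying the immobilized SH2 domain, with library peptides lacking any tyrosine serving as negative controls.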

VKKFKVEYHAGGSTQ [ADK_HUMAN_77]
inactive: SHP2 C-SH2 domain E139D 1.59 | [1] 1.25 | SHP2 N-SH2 domain L43F 1.53 | SHP2 N-SH2 domain T42A 1.48 | SHP2 N-SH2 domain T52S 1.89 | [2] 2.15

EAIKMGRYTEIFMEN [EPHA5_HUMAN_982]
inactive: SHP2 C-SH2 domain E139D 0.999 | [1] 1.2 | SHP2 N-SH2 domain L43F 1.55 | SHP2 N-SH2 domain T42A 2.4 | SHP2 N-SH2 domain T52S 1.06 | [2] 0.984

TYIDPDTYEDPSLAV [EPHA6_HUMAN_612]
inactive: SHP2 C-SH2 domain E139D 1.02 | [1] 0.674 | SHP2 N-SH2 domain L43F 0.881 | SHP2 N-SH2 domain T42A 0.718 | SHP2 N-SH2 domain T52S 0.915 | [2] 0.817

KFPGTKTYIDPETAE [EPHA7_HUMAN_608_YA]
inactive: SHP2 C-SH2 domain E139D 0.923 | [1] 0.751 | SHP2 N-SH2 domain L43F 0.828 | SHP2 N-SH2 domain T42A 0.96 | SHP2 N-SH2 domain T52S 1.01 | [2] 0.981

TAIDPETYEDPNRAV [EPHA7_HUMAN_614_YA]
inactive: SHP2 C-SH2 domain E139D 0.766 | [1] 0.787 | SHP2 N-SH2 domain L43F 0.76 | SHP2 N-SH2 domain T42A 0.732 | SHP2 N-SH2 domain T52S 0.944 | [2] 0.926

EDDPEAVYTTTGGKI [EPHA7_HUMAN_791]
inactive: SHP2 C-SH2 domain E139D 1.05 | [1] 0.777 | SHP2 N-SH2 domain L43F 0.741 | SHP2 N-SH2 domain T42A 0.889 | SHP2 N-SH2 domain T52S 0.949 | [2] 0.781

FYAEPHTYEEPGRAG [EPHA8_HUMAN_616]
inactive: SHP2 C-SH2 domain E139D 0.52 | [1] 0.62 | SHP2 N-SH2 domain L43F 0.769 | SHP2 N-SH2 domain T42A 0.452 | SHP2 N-SH2 domain T52S 0.466 | [2] 0.411

IAIDPFTYEDPNEAV [EPHB1_HUMAN_600_YA]
inactive: SHP2 C-SH2 domain E139D 1.08 | [1] 0.894 | SHP2 N-SH2 domain L43F 1.32 | SHP2 N-SH2 domain T42A 1.01 | SHP2 N-SH2 domain T52S 1.14 | [2] 1.74

VYIDPFTYEDPNEAV [EPHB3_HUMAN_614]
inactive: SHP2 C-SH2 domain E139D 1.07 | [1] 0.929 | SHP2 N-SH2 domain L43F 1.15 | SHP2 N-SH2 domain T42A 1.27 | SHP2 N-SH2 domain T52S 1 | [2] 0.9

GGLSDGPYSNPYENS [EPOR_HUMAN_485]
inactive: SHP2 C-SH2 domain E139D 0.511 | [1] 0.494 | SHP2 N-SH2 domain L43F 0.786 | SHP2 N-SH2 domain T42A 0.453 | SHP2 N-SH2 domain T52S 0.618 | [2] 0.524

GGLSDGPYSNPAENS [EPOR_HUMAN_485_YA]
inactive: SHP2 C-SH2 domain E139D 0.648 | [1] 0.487 | SHP2 N-SH2 domain L43F 0.56 | SHP2 N-SH2 domain T42A 0.504 | SHP2 N-SH2 domain T52S 0.481 | [2] 0.552

DGPASNPYENSLIPA [EPOR_HUMAN_489_YA]
inactive: SHP2 C-SH2 domain E139D 0.508 | [1] 0.457 | SHP2 N-SH2 domain L43F 0.608 | SHP2 N-SH2 domain T42A 0.49 | SHP2 N-SH2 domain T52S 0.533 | [2] 0.619

NFANFSAYPSEEDMI [EPS15_HUMAN_849]
inactive: SHP2 C-SH2 domain E139D 0.878 | [1] 0.826 | SHP2 N-SH2 domain L43F 0.915 | SHP2 N-SH2 domain T42A 0.772 | SHP2 N-SH2 domain T52S 0.77 | [2] 0.752

SPLDSTFYRSLLEDD [ERBB2_HUMAN_1005]
inactive: SHP2 C-SH2 domain E139D 0.961 | [1] 0.829 | SHP2 N-SH2 domain L43F 0.929 | SHP2 N-SH2 domain T42A 0.87 | SHP2 N-SH2 domain T52S 0.943 | [2] 1.05

DLVDAEEYLVPQQGF [ERBB2_HUMAN_1023]
inactive: SHP2 C-SH2 domain E139D 0.802 | [1] 0.699 | SHP2 N-SH2 domain L43F 0.684 | SHP2 N-SH2 domain T42A 0.899 | SHP2 N-SH2 domain T52S 0.805 | [2] 0.728

DPSPLQRYSEDPTVP [ERBB2_HUMAN_1112]
inactive: SHP2 C-SH2 domain E139D 0.611 | [1] 0.548 | SHP2 N-SH2 domain L43F 0.665 | SHP2 N-SH2 domain T42A 0.721 | SHP2 N-SH2 domain T52S 0.758 | [2] 0.741

TCSPQPEYVNQPDVR [ERBB2_HUMAN_1139]
inactive: SHP2 C-SH2 domain E139D 1.09 | [1] 1.02 | SHP2 N-SH2 domain L43F 0.939 | SHP2 N-SH2 domain T42A 1.13 | SHP2 N-SH2 domain T52S 1.3 | [2] 1.37

GAVENPEYLTPQGGA [ERBB2_HUMAN_1196]
inactive: SHP2 C-SH2 domain E139D 0.727 | [1] 0.557 | SHP2 N-SH2 domain L43F 0.505 | SHP2 N-SH2 domain T42A 0.667 | SHP2 N-SH2 domain T52S 0.557 | [2] 0.575

ARPLVEFYEEIKKAE [ADRBK1_HUMAN_86_YA]
inactive: SHP2 C-SH2 domain E139D 0.881 | [1] 1.11 | SHP2 N-SH2 domain L43F 0.866 | SHP2 N-SH2 domain T42A 1.21 | SHP2 N-SH2 domain T52S 1.78 | [2] 1.91

SSLEELGYEAMDVGS [ERBB3_HUMAN_1222_YA]
inactive: SHP2 C-SH2 domain E139D 0.921 | [1] 0.693 | SHP2 N-SH2 domain L43F 0.824 | SHP2 N-SH2 domain T42A 0.832 | SHP2 N-SH2 domain T52S 0.996 | [2] 0.757

FNIPPPIYTSRARID [ERBB4_HUMAN_1035]
inactive: SHP2 C-SH2 domain E139D 0.765 | [1] 0.73 | SHP2 N-SH2 domain L43F 0.751 | SHP2 N-SH2 domain T42A 0.715 | SHP2 N-SH2 domain T52S 1.12 | [2] 0.912

EAVNEPLYLNTFANT [ERBB4_HUMAN_1208_YA]
inactive: SHP2 C-SH2 domain E139D 0.579 | [1] 0.454 | SHP2 N-SH2 domain L43F 0.545 | SHP2 N-SH2 domain T42A 0.588 | SHP2 N-SH2 domain T52S 0.55 | [2] 0.487

NTLGKAEYLKNNILS [ERBB4_HUMAN_1221]
inactive: SHP2 C-SH2 domain E139D 0.765 | [1] 0.896 | SHP2 N-SH2 domain L43F 0.806 | SHP2 N-SH2 domain T42A 0.825 | SHP2 N-SH2 domain T52S 0.965 | [2] 1.05

IVAENPEYLSEFSLK [ERBB4_HUMAN_1284]
inactive: SHP2 C-SH2 domain E139D 0.798 | [1] 0.698 | SHP2 N-SH2 domain L43F 0.61 | SHP2 N-SH2 domain T42A 0.608 | SHP2 N-SH2 domain T52S 0.65 | [2] 0.729

DPSPDHLYSFRILHK [AF1L2_HUMAN_413]
inactive: SHP2 C-SH2 domain E139D 0.795 | [1] 0.791 | SHP2 N-SH2 domain L43F 0.819 | SHP2 N-SH2 domain T42A 0.75 | SHP2 N-SH2 domain T52S 0.75 | [2] 0.79

SKSATLLYDQPLQVF [ERBIN_HUMAN_920]
inactive: SHP2 C-SH2 domain E139D 0.502 | [1] 0.549 | SHP2 N-SH2 domain L43F 0.593 | SHP2 N-SH2 domain T42A 0.624 | SHP2 N-SH2 domain T52S 0.615 | [2] 0.573

GANRVVIYDPDWNPS [ERCC6_HUMAN_932]
inactive: SHP2 C-SH2 domain E139D 0.61 | [1] 0.679 | SHP2 N-SH2 domain L43F 0.664 | SHP2 N-SH2 domain T42A 0.53 | SHP2 N-SH2 domain T52S 0.743 | [2] 0.663

KFDTQAPYGEKQDEF [ERP29_HUMAN_66_YA]
inactive: SHP2 C-SH2 domain E139D 1.13 | [1] 0.767 | SHP2 N-SH2 domain L43F 0.839 | SHP2 N-SH2 domain T42A 0.728 | SHP2 N-SH2 domain T52S 0.824 | [2] 0.95

SIQGHNDYMCPATNQ [ESR1_HUMAN_219]
inactive: SHP2 C-SH2 domain E139D 1.07 | [1] 0.935 | SHP2 N-SH2 domain L43F 1.03 | SHP2 N-SH2 domain T42A 0.936 | SHP2 N-SH2 domain T52S 0.931 | [2] 1.2

DSSKPAVYNAPEGAA [ESR1_HUMAN_52_YA]
inactive: SHP2 C-SH2 domain E139D 0.775 | [1] 0.681 | SHP2 N-SH2 domain L43F 1.24 | SHP2 N-SH2 domain T42A 0.672 | SHP2 N-SH2 domain T52S 0.758 | [2] 0.705

SIAIPSSYVDSHHEA [ESR2_HUMAN_36_YA]
inactive: SHP2 C-SH2 domain E139D 0.606 | [1] 0.543 | SHP2 N-SH2 domain L43F 0.638 | SHP2 N-SH2 domain T42A 0.635 | SHP2 N-SH2 domain T52S 0.771 | [2] 0.628

SAPAGARYVGSMVAD [F16P1_HUMAN_245_YA]
inactive: SHP2 C-SH2 domain E139D 0.61 | [1] 0.513 | SHP2 N-SH2 domain L43F 0.461 | SHP2 N-SH2 domain T42A 0.562 | SHP2 N-SH2 domain T52S 0.477 | [2] 0.528

VYGGIFLYPANKKSP [F16P1_HUMAN_265]
inactive: SHP2 C-SH2 domain E139D 1.98 | [1] 1.76 | SHP2 N-SH2 domain L43F 2.36 | SHP2 N-SH2 domain T42A 1.64 | SHP2 N-SH2 domain T52S 2.5 | [2] 2.5

SSDEEAIYMNKVTIN [AF1L2_HUMAN_56_YA]
inactive: SHP2 C-SH2 domain E139D 0.855 | [1] 0.586 | SHP2 N-SH2 domain L43F 1.01 | SHP2 N-SH2 domain T42A 0.626 | SHP2 N-SH2 domain T52S 0.736 | [2] 0.651

IYSLNEGYAKYFDAA [F16P2_HUMAN_216]
inactive: SHP2 C-SH2 domain E139D 1.04 | [1] 2.17 | SHP2 N-SH2 domain L43F 0.737 | SHP2 N-SH2 domain T42A 0.81 | SHP2 N-SH2 domain T52S 0.731 | [2] 0.806

DEVIITGYCQGDGYR [FAAA_HUMAN_395]
inactive: SHP2 C-SH2 domain E139D 1.41 | [1] 1.25 | SHP2 N-SH2 domain L43F 1.12 | SHP2 N-SH2 domain T42A 1.12 | SHP2 N-SH2 domain T52S 1.46 | [2] 2
